# The full ranking holds about 33,000 sequences; the median of “E-score (-0.5 to 0.5)” is about -0.016, and the highest 2% start at about 0.32. This is one part of the list.
# Target: T1, Stp1 (UniProt B3LFK1)
# T1 sequence: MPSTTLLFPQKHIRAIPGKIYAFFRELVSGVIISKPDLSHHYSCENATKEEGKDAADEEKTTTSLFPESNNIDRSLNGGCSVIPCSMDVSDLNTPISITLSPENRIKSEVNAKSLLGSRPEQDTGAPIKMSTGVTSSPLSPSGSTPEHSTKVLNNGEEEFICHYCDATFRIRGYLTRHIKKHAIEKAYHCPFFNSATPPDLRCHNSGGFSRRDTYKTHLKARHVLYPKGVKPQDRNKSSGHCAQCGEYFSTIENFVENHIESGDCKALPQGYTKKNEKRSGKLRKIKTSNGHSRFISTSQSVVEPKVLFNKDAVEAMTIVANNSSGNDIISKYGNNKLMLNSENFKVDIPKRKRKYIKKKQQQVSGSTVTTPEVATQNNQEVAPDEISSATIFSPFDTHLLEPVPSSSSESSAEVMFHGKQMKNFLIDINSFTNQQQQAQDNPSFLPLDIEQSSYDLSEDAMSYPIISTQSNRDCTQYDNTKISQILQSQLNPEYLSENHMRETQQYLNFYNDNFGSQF
# Test: PBM E-score (8-mer binding enrichment) (E-score (-0.5 to 0.5)); higher = stronger / more preferred TF binding; most listed sequences are background and not binding sites
# Settings: protein concentration: 200 nM; construct: GST-full length
# Experimental: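 Universal 'all 10-mer' protein binding microarrays (Agilent AMADID 015681) probed with GST-tagged S. cerevisiae TFs (full-length or DBD) made by in vitro transcription/translation (PURExpress), about 100-200 nM. Bound TF was detected with fluorescent anti-GST. Each ungapped 8-mer (which stands for itself and its reverse complement) is scored by the PBM enrichment score (E-score), a modified Wilcoxon-Mann-Whitney statistic from -0.5 to +0.5, computed with the Universal PBM Analysis Suite. Scale: above 0.35 generally sequence-specific binding.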
row,Sequence,PBM E-score
1,ACCACCCA,-0.0526
2,AGACTTAC,-0.25
3,TCAAGGAA,0.0129
4,TCCCGAAA,-0.0842
5,AATCGCCA,0.213
6,AGTGGTAT,-0.0308
7,ACAAGTAT,-0.00903
8,AAGAGTGC,-0.0482
9,GTTCTGGA,-0.0238
10,ACCTTTCG,-0.121
11,ATTATTTG,0.147
12,CTCGTCCC,-0.0621
13,CTCCAGCC,-0.0414
14,ATCACCCG,-0.202
15,CGATTGGC,0.158
16,CTTCCCAA,-0.112
17,GTGGGGGA,-0.299
18,GATATAAC,0.0865
19,GGAGTCTA,-0.368
20,ATCCTTAA,-0.0371
21,CCGAGGTC,-0.241
22,AAGTAAGC,0.0305
23,TCTCCTCA,-0.138
24,TACGAGTA,-0.0123
25,ACCCACGA,-0.0625

row,Sequence,PBM E-score
1,GAGTCCGA,0.0238
2,GCCTAAGA,-0.138
3,GTGACTAA,0.0535
4,GGCGAGTA,0.0446
5,GAGGCTGA,-0.0986
6,ATATCTCA,0.117
7,CTGTTAGC,-0.126
8,GCGGGAGA,-0.27
9,GCAATTGA,0.217
10,AATGAACT,0.114
11,TCATCCAA,-0.00732
12,GCCTGCGA,-0.202
13,CGTGTTTA,0.114
14,CGCGGACA,0.17
15,AACGGGGA,-0.0385
16,GCCAAGGA,-0.16
17,CGCTTTAC,-0.0161
18,CAAAACGC,0.322
19,CGCGCGCC,0.403
20,AAGATGAC,-0.101
21,CAATCACC,-0.0123
22,GGAAGTGA,-0.0634
23,AGATTGAG,0.0447
24,CAGTATAG,0.195
25,AAAGATGA,0.17

row,Sequence,PBM E-score
1,CACACGGC,0.471
2,ACTAAATC,0.238
3,CCGCAGAC,0.121
4,CGTTTTTC,0.0985
5,GACACCGC,-0.134
6,ATTAAGGG,-0.294
7,CCAAGGCG,0.341
8,ATAAGTAC,0.0441
9,ACAGAGGC,-0.0508
10,AATTAGGA,0.072
11,AATTTTTA,0.0472
12,AACACCCG,0.151
13,ACACCGCA,0.0297
14,CCCGCAAG,-0.255
15,GAGTCAAC,-0.175
16,AAGGATAT,0.144
17,TGAGTGCA,-0.0619
18,AAGAAGGA,-0.227
19,ATGCGCAC,-0.00186
20,AGAACGAT,0.0102
21,ACTAGTAG,0.0974
22,CTTCGACA,-0.0844
23,ACTCCAGA,-0.0698
24,GCCCGGGC,0.0954
25,GCGTGTCA,0.12

row,Sequence,PBM E-score
1,CTTGAAAC,0.17
2,GACACCTC,-0.00334
3,CACTCTTA,0.0762
4,GAGAGTGA,0.0241
5,AAATGTCA,0.00198
6,ACCCGTCT,-0.141
7,TCCTCACA,0.069
8,TACTAAAA,0.217
9,ACGGAGAG,-0.0709
10,ACACTCTA,0.178
11,CATCCTAG,-0.00726
12,AGGAAGAG,-0.237
13,ATCGTACA,0.0995
14,AGGTCTCA,-0.131
15,CGGAATAC,0.00552
16,CATCCATG,-0.0587
17,GACCGGAA,-0.033
18,GATCGCCA,-0.0854
19,TGTCGGAA,-0.113
20,AGCCCGCG,-0.101
21,AATGTATG,0.014
22,ATTTTTTA,0.287
23,GGGAAACA,0.043
24,CCGAACGA,-0.0055
25,CCAGCCCA,-0.327

row,Sequence,PBM E-score
1,CCTGAGGC,0.0583
2,AAAGCGTG,-0.00087
3,AGGGCGAA,-0.0283
4,CAAACGAC,0.0657
5,CTGGTAGA,-0.0578
6,CGTGCTAC,0.058
7,ACCTGGTC,-0.303
8,CAAGTAAA,0.112
9,CGTTGTTC,0.106
10,TCTCGCCA,-0.153
11,CCACACGC,0.158
12,GACCACGC,-0.192
13,ATCTGCCG,0.155
14,CGGGGTAA,0.00957
15,CCATCCAA,0.0222
16,CATTCGGA,0.135
17,ACAATTTC,0.00886
18,ACCCCCAG,-0.405
19,GTGAATTA,0.206
20,GACCAGTA,-0.284
21,CCAACTTC,-0.101
22,ATATGGTG,0.0916
23,GCTTCCGA,-0.0252
24,CTCTGTAA,-0.0941
25,ACAGGCCT,-0.248

row,Sequence,PBM E-score
1,CGTAACAC,0.0618
2,AGCGATAA,0.0662
3,CGTTGAAC,0.105
4,GGGTGGTA,-0.125
5,ACAGAGGT,-0.105
6,CTTAGAGC,0.0308
7,AGCTTCCA,-0.0479
8,GAGCAATC,-0.0394
9,GGAGGCCA,-0.194
10,ACCTTCTA,-0.0466
11,GCCCCATA,-0.0843
12,AGAGGCAA,0.0357
13,AGAGGCGA,0.135
14,CAACGGTC,-0.0394
15,ACACGTAC,-0.0398
16,ACACCGCT,-0.368
17,AGCGGGGA,-0.147
18,CGGGTTTA,0.104
19,ATCTCGAG,-0.0297
20,GGGCTAAA,-0.0695
21,CATTCTAG,-0.0663
22,CAGAAAAA,0.0537
23,CACCTACC,-0.148
24,CCAACAGA,-0.0733
25,GCTAGGAA,-0.223

row,Sequence,PBM E-score
1,AGTGCTCG,-0.162
2,CCTACGCG,-0.103
3,CCTATGCA,-0.0155
4,AAATTTCT,-0.0455
5,CCTGGCCG,-0.105
6,GGACCTAC,-0.148
7,CACAGAGG,-0.136
8,ACACTTCG,0.0446
9,ACGACCAA,-0.0741
10,CTCGTGAC,0.00515
11,AATTTAAA,0.117
12,GCTTGGAA,-0.00205
13,AGGTAATG,-0.0559
14,AGGGTAAC,-0.165
15,CGATGAGA,-0.0578
16,ATTATCAG,0.141
17,AGATGTAC,-0.171
18,ATTAAATA,0.221
19,ATACAGGC,-0.0683
20,CCTGCAAC,-0.0662
21,GCAGATGA,-0.166
22,CGGCGCTA,0.453

# Source: the supplement of paper PMC3334620
